Source: the GPR68 mutational scans of Howard et al. (2025)
The least precise scores are not listed. The source holds two more conditions with little spread; they are left out. In variant names, del marks residues removed and ins residues inserted between the two positions. For some of these results: How much ogerin was present is not stated here.

B1: GPR68, Q15743 (parent)
chain: MGNITADNSSMSCTIDHTIHQTLAPVVYVTVLVVGFPANCLSLYFGYLQIKARNELGVYLCNLTVADLFYICSLPFWLQYVLQHDNWSHGDLSCQVCGILLYENIYISVGFLCCISVDRYLAVAHPFRFHQFRTLKAAVGVSVVIWAKELLTSIYFLMHEEVIEDENQHRVCFEHYPIQAWQRAINYYRFLVGFLFPICLLLASYQGILRAVRRSHGTQKSRKDQIQRLVLSTVVIFLACFLPYHVLLLVRSVWEASCDFAKGVFNAYHFSLLLTSFNCVADPVLYCFVSETTHRDLARLRGACLAFLTCSRTGRAREAYPLGAPEASGKSGAQGEEPELLTKLHPAFQTPNSPGSGGFPTGRLA

Assays:
[1] = variants of: B1; assay: cAMP reporter score (Enrich2 score, wild type = 0); higher = more signal; HEK293T, FACS bins
[2] = variants of: B1; assay: surface expression score (Enrich2 score, wild type = 0); higher = more signal; HEK293T, FACS bins

Variant | cAMP reporter score ([1]; pH 5.5) | cAMP reporter score ([1]; pH 6, modulator: ogerin) | cAMP reporter score ([1]; pH 6.5, modulator: ogerin) | surface expression score [2] | cAMP reporter score ([1]; pH 6)
V65_A66insGS | -0.941 | -1.7 | -1.56 | -2.13 | –
A66_D67del | -1.67 | -1.63 | -0.97 | -2.34 | -1.05
V65_A66insG | -0.767 | -0.657 | -0.858 | – | 0.991
D67C | -0.907 | 0.368 | -0.737 | 1.33 | -0.476
D67F | -0.585 | -0.78 | -0.596 | -1.75 | -0.855
D67R | -0.767 | 0.269 | -0.814 | 0.685 | -0.389
D67E | -0.42 | -0.172 | -0.25 | -1.23 | 0.051
D67G | -1.15 | -1.13 | -0.268 | 1.27 | -0.017
D67N | -0.686 | -0.842 | -1.09 | 1.66 | -0.062
D67Y | -1.69 | -1.61 | -1.35 | -1.59 | -0.275
D67M | -2.25 | -1.42 | -0.528 | -1.2 | -0.738
D67W | -0.535 | -0.34 | -1.08 | -1.66 | –
D67V | -1.28 | -1.25 | -0.986 | -1.2 | -0.612
D67L | -0.709 | -0.856 | -0.337 | -1.19 | -0.09
D67I | -1.16 | -1.04 | -1.09 | -1.66 | -0.016
D67T | -1.14 | -1.05 | -0.791 | 0.134 | -0.069
D67H | -0.185 | -0.722 | -0.185 | -1.28 | 0.701
D67P | -1.48 | -1.71 | -1.18 | -1.87 | -1.15
D67K | -0.482 | -0.665 | -0.392 | -0.395 | -0.119
D67S | -0.861 | -0.87 | 0.427 | 0.512 | -0.437
D67Q | 0.07 | -0.348 | -0.949 | 3.85 | 0.828
A66_D67insGS | -1.2 | -1.07 | -1.74 | -1.99 | -1.1

Variant | cAMP reporter score ([1]; pH 5.5) | cAMP reporter score ([1]; pH 6, modulator: ogerin) | cAMP reporter score ([1]; pH 6.5, modulator: ogerin) | surface expression score [2] | cAMP reporter score ([1]; pH 6)
L68W | -0.802 | -2.15 | -1.44 | -1.45 | -1.97
L68Y | -1.4 | -1.86 | -0.768 | -1.47 | -1.26
L68S | -1.37 | -1.4 | -0.137 | -2.55 | -0.777
L68A | -1.17 | 0.168 | -0.242 | – | -0.478
L68R | -1.95 | -2.28 | -0.601 | -2.45 | -1.07
L68Q | -2.1 | -1.54 | -1.59 | -1.89 | -1.79
L68N | -1.82 | -0.718 | -0.595 | -1.75 | –
L68G | -1.69 | -0.676 | -0.188 | -2.08 | –
L68E | -1.21 | -1.17 | -1.91 | -2.96 | –
L68M | -0.856 | -0.732 | -1.12 | -1.1 | -0.462
L68I | 0.192 | 0.499 | 0.199 | 0.147 | 1.97
L68K | -1.79 | – | -0.901 | -3.11 | -1.03
L68V | -1.38 | -1.26 | -0.362 | -1.97 | -0.843
L68P | -1.31 | -2.33 | -0.956 | -3.27 | –
L68D | -2.46 | – | – | – | -0.815
L68C | -0.723 | -0.618 | -0.703 | -1.75 | -0.406
L68F | 0.906 | – | -0.863 | 0.206 | -0.162
L68H | -0.874 | -2.09 | -0.903 | -2.06 | -1.7
L68T | -0.28 | -0.294 | -0.759 | -1.76 | -0.634
A66del | -1.75 | -1.9 | -1.09 | -2.86 | -1.32
A66_D67insG | -0.51 | -0.675 | -0.303 | -0.289 | -1.14
A66_D67insGSG | -1.57 | -1.26 | -1.45 | -2.29 | -2.2

Variant | cAMP reporter score ([1]; pH 5.5) | cAMP reporter score ([1]; pH 6, modulator: ogerin) | cAMP reporter score ([1]; pH 6.5, modulator: ogerin) | surface expression score [2] | cAMP reporter score ([1]; pH 6)
D67_L68del | -1.41 | -1.87 | -1.19 | -2.59 | -0.074
V65_A66del | -1.2 | -1.51 | -0.826 | -1.98 | -0.677
V65M | 0.03 | -0.076 | 0.535 | 0.103 | -0.073
V65Y | 0.435 | – | 0.192 | -2.61 | 0.567
V65S | -1.43 | -1.78 | -1.37 | -0.999 | -1.27
V65G | -0.415 | -0.513 | -0.891 | – | –
V65R | -0.413 | 0.022 | – | -1.47 | –
V65K | -3.28 | – | -0.54 | – | -0.484
V65I | -1.33 | -1.37 | -0.169 | -0.462 | 0.284
V65L | 0.322 | 1.13 | 1.18 | 1.21 | -0.711
V65Q | -1.01 | -1.27 | -0.978 | -1.91 | -0.57
V65W | -1.31 | – | -0.881 | -2.53 | -1.29
V65H | -1.11 | -1.54 | -1.87 | -2.19 | –
V65T | -0.677 | -0.52 | -1.09 | -1.64 | -1.1
V65P | -0.752 | -0.679 | -0.846 | -2.65 | -1.54
F69C | -0.497 | 0.606 | -0.41 | 0.784 | -1.49
F69D | -2.26 | -1.93 | -0.462 | -3.14 | -1.79
F69A | 1.11 | -0.256 | -0.392 | 0.168 | -0.073
D67_L68insGSG | -1.82 | -1.68 | -1.65 | -2.04 | -1.76
L68_F69insGSG | -2.13 | -2.34 | -1.07 | -1.99 | -1.86
